Assay [1] concerns the target ADP-ribosylation factor 1 (human (in HCT116; endogenous or overexpressed not stated)) (UniProt P84077). The experiment in a line: co-IP; cell lysates precleared with IgG and protein A/G Sepharose beads (4 °C, 1 h), primary antibody overnight at 4 °C, protein A/G Sepharose beads 4 h, washed with PBS and lysis buffer, Western blotting; HCT116 and RKO cells (Figure 5B); with and without ARF1 overexpression (Figure 5H); untreated cells of Figure 6A. In general terms: Immunoblotting shows a protein as a band on a membrane.

Protein sequences, listed by entry. Tags and fused reporters are not part of them. Lines headed by an entry give the natural chain unless they say otherwise; changes in a name come on top.
UniProt P84077: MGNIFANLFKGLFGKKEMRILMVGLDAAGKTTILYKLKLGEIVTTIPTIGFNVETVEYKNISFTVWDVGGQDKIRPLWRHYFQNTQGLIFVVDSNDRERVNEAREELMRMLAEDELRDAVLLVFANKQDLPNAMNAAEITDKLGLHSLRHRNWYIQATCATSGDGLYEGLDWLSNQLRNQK
UniProt P46940: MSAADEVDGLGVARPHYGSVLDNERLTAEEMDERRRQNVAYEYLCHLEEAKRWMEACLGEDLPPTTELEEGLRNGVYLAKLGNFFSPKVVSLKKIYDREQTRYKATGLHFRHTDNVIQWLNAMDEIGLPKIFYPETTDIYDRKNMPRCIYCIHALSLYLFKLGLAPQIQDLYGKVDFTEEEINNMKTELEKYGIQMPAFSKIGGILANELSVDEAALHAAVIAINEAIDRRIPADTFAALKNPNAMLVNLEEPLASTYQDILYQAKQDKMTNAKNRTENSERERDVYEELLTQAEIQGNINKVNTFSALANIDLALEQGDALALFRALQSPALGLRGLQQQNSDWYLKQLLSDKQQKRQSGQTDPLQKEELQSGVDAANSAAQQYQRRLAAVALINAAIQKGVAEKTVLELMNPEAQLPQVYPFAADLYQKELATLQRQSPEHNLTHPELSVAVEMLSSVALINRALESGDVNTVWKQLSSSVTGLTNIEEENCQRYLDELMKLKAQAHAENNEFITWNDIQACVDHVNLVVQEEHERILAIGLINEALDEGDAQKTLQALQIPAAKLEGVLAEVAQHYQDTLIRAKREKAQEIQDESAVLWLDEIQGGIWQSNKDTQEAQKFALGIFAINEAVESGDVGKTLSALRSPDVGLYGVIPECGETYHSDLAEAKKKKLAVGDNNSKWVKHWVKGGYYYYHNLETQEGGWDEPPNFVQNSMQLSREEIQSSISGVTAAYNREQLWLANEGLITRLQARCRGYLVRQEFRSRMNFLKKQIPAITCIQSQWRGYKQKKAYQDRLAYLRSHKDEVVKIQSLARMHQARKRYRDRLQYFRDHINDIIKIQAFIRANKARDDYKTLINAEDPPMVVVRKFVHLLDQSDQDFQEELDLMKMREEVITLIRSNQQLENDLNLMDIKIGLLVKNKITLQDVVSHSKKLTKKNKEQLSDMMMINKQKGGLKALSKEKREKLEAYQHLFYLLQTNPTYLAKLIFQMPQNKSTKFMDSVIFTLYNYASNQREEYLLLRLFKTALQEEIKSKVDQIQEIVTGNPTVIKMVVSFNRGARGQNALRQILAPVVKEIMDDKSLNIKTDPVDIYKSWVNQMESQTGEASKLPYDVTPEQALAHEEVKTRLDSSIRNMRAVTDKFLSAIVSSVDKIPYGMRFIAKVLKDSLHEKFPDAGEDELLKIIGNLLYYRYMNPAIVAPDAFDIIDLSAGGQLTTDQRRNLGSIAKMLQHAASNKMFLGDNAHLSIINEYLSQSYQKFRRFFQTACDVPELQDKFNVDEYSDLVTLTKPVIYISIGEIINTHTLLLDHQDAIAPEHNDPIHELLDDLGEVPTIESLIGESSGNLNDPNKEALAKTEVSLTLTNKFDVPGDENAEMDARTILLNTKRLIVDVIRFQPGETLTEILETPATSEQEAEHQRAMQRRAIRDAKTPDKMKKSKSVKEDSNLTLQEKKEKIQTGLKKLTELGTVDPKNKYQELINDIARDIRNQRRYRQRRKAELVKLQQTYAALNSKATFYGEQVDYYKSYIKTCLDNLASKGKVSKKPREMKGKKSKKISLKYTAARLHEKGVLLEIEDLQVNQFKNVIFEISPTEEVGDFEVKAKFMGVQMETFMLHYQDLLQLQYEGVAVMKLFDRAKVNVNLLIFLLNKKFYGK

The next assay concerns the target wild-type ARF1 (UniProt P84077). The assay is described as above.
Assay [2] has as its target ADP-ribosylation factor 1 (human (in HCT116; endogenous or overexpressed not stated)) (UniProt P84077). Description: co-IP; immunoprecipitation from cells treated with azelastine (Figure 6A); concentration, time and cell line not given.
The target of another assay is flag-ARF1 (UniProt P84077). The experiment in a line: co-IP; HCT116 cells transfected with the flag-ARF1 plasmid and plasmids for wild-type or truncated IQGAP1; lysates immunoprecipitated using flag antibody, bound proteins analysed.

Results are given in words; binding and its absence hold for the method and conditions named. In cells and extracts the contact can be indirect. Some results given as binding are weak or reduced against the parent protein; the word gives no strength.

Experimental findings from article PMC7778598 are described below.

Consider “IQ-domain GTPase-activating protein 1 (from UniProt P46940 1-1657)”, for which the binding entry in assay [1] is given as “binds”; with wild-type ARF1 it was “binds”; in assay [2], “no binding (condition: cells treated with azelastine)”.

With “IQGAP1-∆RGCT (from UniProt P46940 1-1275) (domain or fragment)”, the binding result with flag-ARF1 is reported as “binds”.

Take “IQGAP1-∆RGCT/GRD (from UniProt P46940 1-1003) (domain or fragment)”: in the assay with flag-ARF1, the binding result is given as “binds”.

“wild-type IQGAP1 (from UniProt P46940 1-1657)”: the binding result with flag-ARF1 is “binds”.
